The source gives many values for each of these; only a part stands here.
Columns and labels:
[1] = tested on: Rat; assay: concentration in plasma after dosing; settings: dosed: Fluorotelomer alcohol 8+2, oral
[2] = tested on: Rat; assay: concentration in plasma after dosing; settings: 0.75 h; dosed: Fluorotelomer alcohol 8+2; 24 mg/kg; oral; Male; Harlan Sprague Dawley

OCCC(F)(F)C(F)(F)C(F)(F)C(F)(F)C(F)(F)C(F)(F)C(F)(F)C(F)(F)F [Fluorotelomer alcohol 8+2]
concentration in plasma [ng/mL], [1]
Settings	Harlan Sprague Dawley	Harlan Sprague Dawley - this seems too small
0.25 h, 24 mg/kg, Male	204	–
0.25 h, 40 mg/kg, Female	254	–
0.25 h, 48 mg/kg, Male	170	–
0.25 h, 80 mg/kg, Female	255	–
0.25 h, 160 mg/kg, Female	233	–
0.5 h, 24 mg/kg, Male	546	285
0.5 h, 40 mg/kg, Female	466	–
0.5 h, 48 mg/kg, Male	732	–
0.5 h, 80 mg/kg, Female	453	–
0.5 h, 160 mg/kg, Female	851	–
0.75 h, 24 mg/kg, Male	919	–
0.75 h, 40 mg/kg, Female	633	–
0.75 h, 48 mg/kg, Male	664	–
0.75 h, 80 mg/kg, Female	1460	–
0.75 h, 160 mg/kg, Female	1310	–
1 h, 24 mg/kg, Male	290	–
1 h, 40 mg/kg, Female	559	–
1 h, 48 mg/kg, Male	689	–
1 h, 80 mg/kg, Female	1040	–
1 h, 160 mg/kg, Female	1890	–
3 h, 24 mg/kg, Male	182	–
3 h, 40 mg/kg, Female	136	–
3 h, 48 mg/kg, Male	474	–
3 h, 80 mg/kg, Female	748	–
3 h, 160 mg/kg, Female	1580	–
5 min, 40 mg/kg, Female	12.5	–
5 min, 48 mg/kg, Male	12.9	–
5 min, 80 mg/kg, Female	5.27	–
5 min, 160 mg/kg, Female	27.2	–
6 h, 24 mg/kg, Male	55.4	–
6 h, 40 mg/kg, Female	325	–
6 h, 48 mg/kg, Male	294	–
6 h, 80 mg/kg, Female	213	–
6 h, 160 mg/kg, Female	2250	–
9 h, 40 mg/kg, Female	112	–
9 h, 48 mg/kg, Male	133	–
9 h, 80 mg/kg, Female	427	–
9 h, 160 mg/kg, Female	279	–
12 h, 24 mg/kg, Male	8.89	–
12 h, 40 mg/kg, Female	57	–
12 h, 48 mg/kg, Male	37.9	–
12 h, 80 mg/kg, Female	52.7	–
12 h, 160 mg/kg, Female	339	–
24 h, 24 mg/kg, Male	4.53	–
24 h, 40 mg/kg, Female	6.22	–
24 h, 48 mg/kg, Male	5.6	–
24 h, 80 mg/kg, Female	20.6	–
24 h, 160 mg/kg, Female	63.4	–
48 h, 48 mg/kg, Male	1.11	–
48 h, 80 mg/kg, Female	3.74	–
48 h, 160 mg/kg, Female	7.4	–

Settings	concentration in plasma [ng/mL]
[2]	924
